From PubChem BioAssay AID504332 (National Center for Advancing Translational Sciences (NCATS), 2011)
Where “and” joins values, the source holds several entries; their conditions need not be identical. Equal values may be shown once. Out of some 350,000 compounds screened, about 31,000 (8.9%) were called active. Inconclusive results, whose numbers are uncertain, are shown with a selection of clear calls. Calls follow the shape of the dose curve; as a rule, active = well fitted inhibition curve with a large enough effect; inconclusive = small, poorly fitted or top-dose-only effect; inactive = no such curve, though single readings can be large or run the other way. A potency beside an inconclusive call is a rough fit, not a confirmed value. Where a structure was tested more than once in an assay, its records may differ in their call.

molecular target: Histone-lysine N-methyltransferase EHMT2 (Homo sapiens) (UniProt Q96KQ7); test: qHTS Assay for Inhibitors of Histone Lysine Methyltransferase G9a; settings: G9a H3K9 monomethylation, AlphaScreen, 2 h; activity, negative = inhibition: at 59 µM (top of the series) unless noted; also: nearly all actives have a fitted effect of over 75% in size
UniProt Q96KQ7, sequence (Q96KQ7 whole entry, looked up): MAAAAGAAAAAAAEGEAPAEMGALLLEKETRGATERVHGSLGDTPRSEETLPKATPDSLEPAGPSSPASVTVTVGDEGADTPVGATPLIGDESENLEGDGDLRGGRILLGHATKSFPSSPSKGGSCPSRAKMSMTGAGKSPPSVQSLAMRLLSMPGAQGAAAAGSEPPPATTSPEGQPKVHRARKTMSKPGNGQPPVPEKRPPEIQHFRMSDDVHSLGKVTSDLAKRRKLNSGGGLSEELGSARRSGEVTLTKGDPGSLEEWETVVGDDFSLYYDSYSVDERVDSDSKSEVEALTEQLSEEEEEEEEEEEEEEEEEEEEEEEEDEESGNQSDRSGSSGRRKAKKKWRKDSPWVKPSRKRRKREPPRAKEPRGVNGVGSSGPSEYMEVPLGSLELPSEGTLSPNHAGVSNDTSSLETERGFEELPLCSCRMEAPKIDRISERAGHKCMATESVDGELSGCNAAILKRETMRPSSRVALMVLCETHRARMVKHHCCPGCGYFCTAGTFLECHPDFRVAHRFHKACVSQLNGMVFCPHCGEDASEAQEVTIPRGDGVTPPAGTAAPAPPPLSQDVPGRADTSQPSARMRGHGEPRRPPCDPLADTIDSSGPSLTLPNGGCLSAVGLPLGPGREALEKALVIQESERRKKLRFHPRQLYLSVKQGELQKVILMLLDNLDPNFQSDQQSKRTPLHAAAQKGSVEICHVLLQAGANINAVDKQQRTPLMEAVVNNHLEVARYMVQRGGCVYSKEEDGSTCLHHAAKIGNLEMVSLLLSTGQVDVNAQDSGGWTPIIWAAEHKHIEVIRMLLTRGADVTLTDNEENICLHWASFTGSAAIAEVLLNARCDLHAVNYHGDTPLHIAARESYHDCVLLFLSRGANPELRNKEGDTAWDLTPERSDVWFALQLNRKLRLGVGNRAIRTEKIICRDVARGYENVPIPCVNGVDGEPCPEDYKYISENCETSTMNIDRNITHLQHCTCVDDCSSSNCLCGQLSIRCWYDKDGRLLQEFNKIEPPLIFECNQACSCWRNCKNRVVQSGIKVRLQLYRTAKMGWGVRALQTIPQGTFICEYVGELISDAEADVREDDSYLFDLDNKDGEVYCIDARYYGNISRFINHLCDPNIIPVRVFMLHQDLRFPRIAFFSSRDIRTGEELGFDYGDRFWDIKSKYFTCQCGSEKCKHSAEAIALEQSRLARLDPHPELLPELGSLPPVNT
Outline: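 Using a bead-based AlphaScreen, monomethylated H3K9 product from 2 h room-temperature reactions (G9a 20 nM, peptide 500 nM, SAM 20 uM) was detected with 0.5 ug/mL rabbit anti-H3K9me1 antibody.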
% is scaled to controls: 0 for no effect and ±100 for the full control effect; potency is read from the fitted curve at half-maximal effect; tags tell the direction and shape of the fitted curve.

Structure (SMILES) | Potency | activity, negative = inhibition
Cc1ccc(S(=O)(=O)N2CCC(=O)N2)cc1 | inconclusive: 3.98 µM [inhibitor, single point] | –
CCN1CCN(c2cc(C)c3cc(NC(=S)N4CCN(c5ccc(F)cc5)CC4)ccc3n2)CC1 | inconclusive: 35.5 µM [inhibitor, partial curve] | –
O=C1NN(c2cccc(Br)c2)C(=O)/C1=C\c1ccccc1 | active: 20 µM | –
O=C1CCC(C(=O)N2CCN(c3ccccc3Cl)CC2)CN1CC1CCCCC1 (stereo not given) | – | inactive: 0.955%
COc1cc(NC(=O)c2nn(-c3ccc(F)cc3)c(=O)n(C)c2=O)cc(OC)c1OC | – | inactive: 13.7%
Nc1cccn2c(-c3ccc(Cl)cc3)cnc12 | active: 50.1 µM | –
CN1CCCN(C(=O)C2CCC(C(=O)N3CCCN(C)CC3)CC2)CC1 (stereo not given) | inconclusive: 89.1 µM [inhibitor, single point] | –
NC(=O)C1(N2CCCCC2)CCN(C(=S)Nc2ccccc2)CC1 | – | inactive: 2.6%
COc1ccc(CC(=O)Nc2nnc(-c3cccc([N+](=O)[O-])c3)s2)cc1 | inconclusive: 89.1 µM [inhibitor, single point] | –
Cc1ccc2[nH]c(=O)c(C(c3nnnn3CC3CCCO3)N3CCOCC3)cc2c1 (stereo not given) | – | inactive: 5.8%
NC(=O)c1sc2nc(-c3ccco3)ccc2c1N | inconclusive: 39.8 µM [inhibitor, single point] | –
Cc1ccccc1NC(=O)c1c(NC(=O)C(F)(F)F)sc2c1CCCCC2 | active: 8.91 µM | –
COc1cc(/C=C/C(=O)OCC(=O)NC(=O)NC2CCCC2)ccc1OCC#N | inconclusive: 89.1 µM [inhibitor, single point] | –
O=C(c1ccc2ccccc2c1)N1CCN(c2ccc(O)cc2)CC1 | active: 31.6 µM | –
Cc1nc(-c2cccc(Br)c2)ccc1C(=O)O | inconclusive: 89.1 µM [inhibitor, partial curve, poor fit] | –
CC1CC1C(=O)N(C)CC(=O)Nc1cccc(F)c1 (stereo not given) | inconclusive: 39.8 µM [inhibitor, partial curve, poor fit] | –
CC(=O)c1ccc(NC(=O)COc2ccccc2-c2nc(-c3ccccc3)no2)cc1 | inconclusive: 25.1 µM [inhibitor, partial curve, poor fit] | –
COC(=O)c1[nH]c2ccccc2c1NC(=O)Oc1ccccc1 | active: 10 µM | –
Cc1ccccc1-c1nc(CS(=O)(=O)CC(=O)N2CCc3ccccc3C2)c(C)o1 | inconclusive: 35.5 µM [inhibitor, single point] | –
CC1(C)Oc2ccc(C(=O)NC3CCCC3)cc2N(CC(=O)NC2CCCCC2)C1=O | – | inactive: -5.96% [at 12.7 µM]
CCN1CCc2c(sc(NC(=O)c3ccc(S(=O)(=O)N(C)CC4CCCO4)cc3)c2C(N)=O)C1 (stereo not given) | inconclusive: 63.1 µM [inhibitor, single point] | –
Cc1cc(N2CCCC2)ccc1NC(=O)CN1C(=O)NC2(CCCCC2)C1=O | active: 3.55 µM | –
Cn1c(=O)n(CCc2ccccc2)c(=O)c2c1nc1n2CCCN1CCc1ccccc1 | – | inconclusive: -64.3% [inhibitor]
C=CCOc1ccc(/C(O)=C2\C(=O)C(=O)N(CCCOC)C2c2ccncc2)cc1 (stereo not given) | – | inconclusive: -86.9% [inhibitor]

Structure (SMILES) | Potency | activity, negative = inhibition
CC(C)(C)OC(=O)N1CC=C2C(C#N)=C(N)C(C#N)(C#N)C(c3cccs3)C2C1 (stereo not given) | inconclusive: 2.51 µM [inhibitor, partial curve, poor fit] | –
CC(C)OC(=O)CN1C(=O)S/C(=C/c2ccc(N3CCCCC3)o2)C1=O | inconclusive: 2.24 µM [inhibitor, partial curve, poor fit] | –
CN1CCc2c(OCC(=O)N3N=C(c4cccs4)CC3c3ccc(F)cc3)cccc2C1=O (stereo not given) | inconclusive: 79.4 µM [inhibitor, single point] | –
Cc1cn(-c2cc(NC(=O)c3ccc(C)c(NC(=O)c4cccc(-c5cn[nH]c(=O)c5)c4)c3)cc(C(F)(F)F)c2)cn1 | active: 14.1 µM | –
Cc1[nH]c2ccccc2c1C(=O)CSc1nc2ccccc2c(=O)n1-c1ccccc1F | – | inactive: 1.74% [at 102 µM]
Cc1ccc(C)c(N/N=C2\CCCNC2=O)c1 | inconclusive: 31.6 µM [inhibitor, single point] | –
Cc1cc2c(c(=O)n1CCN(C)C)C(c1ccc(Br)cc1)C(C#N)=C(N)O2 (stereo not given) | inconclusive: 79.4 µM [inhibitor, partial curve, poor fit] | –
Cc1ccc(-c2noc(CSc3nnc(C)n3-c3ccc(C)cc3)n2)cc1 | inconclusive: 22.4 µM [inhibitor, partial curve, poor fit] | –
COc1ccc(/C(N)=N/OC(=O)C2CCCCC2)cc1OC | inconclusive: 79.4 µM [inhibitor, single point] | –
COc1ccc(CCC(=O)Nc2ccc3c(c2)OCCO3)cc1 | inconclusive: 100 µM [inhibitor, partial curve, poor fit] | –
CCC(=O)N(Cc1cc2ccc(C)cc2n2nnnc12)C1CCCCC1 | inconclusive: 31.6 µM [inhibitor, single point] | –
O=S(=O)(Nc1cc(C(F)(F)F)ccc1N1CCOCC1)c1ccc2ccccc2c1 | active: 50.1 µM | –
CN(Cc1cccs1)C(=O)COC(=O)CNC(N)=O | – | inactive: 9.24% [at 102 µM]
O=C(CSCc1ccc(Cl)cc1)Nc1cccc(C(=O)Nc2ccccc2C(=O)O)c1 | – | inconclusive: -61.9% [inhibitor]
CCCn1c(SCC(=O)NC2CCCCC2C)n[nH]c1=O (stereo not given) | inconclusive: 25.1 µM [inhibitor, partial curve, poor fit] | –
CN(C)c1ccc(/C=N/N2CCN(Cc3ccccc3Cl)CC2)cc1 | inconclusive: 7.94 µM [inhibitor, full curve, poor fit] | –
CN1CCC(=O)N([C@H](COc2ccccc2)Cc2ccccc2)CC1 | inconclusive: 0.562 µM [inhibitor, full curve, poor fit] | –
CN(C)c1ccc(/C=C(\C#N)c2ccccn2)cc1 | inconclusive: 39.8 µM [inhibitor, partial curve, poor fit] | –
O=C(CCN1CCCC1Cc1ccccc1)c1ccc2c(c1)OCCO2 (stereo not given) | active: 2.82 µM | –
Cc1cc(O)c(NC(=O)c2ccco2)cc1C | active: 8.91 µM | –
Cc1ccc(S(=O)(=O)N2CCOCC2)cc1C(=O)Nc1ccc(-c2cn3ccsc3n2)cc1 | – | inconclusive: -72.1% [inhibitor]
CCOC(=O)N1CCN(C(=O)COC(=O)c2cccc(S(C)(=O)=O)c2)CC1 | inconclusive: 44.7 µM [inhibitor, partial curve, poor fit] | –
Cc1csc2nc(CSc3nc4ccccc4o3)cn12 | inconclusive: 35.5 µM [inhibitor, single point] | –
COc1ccc(N2CCN(C(=O)COc3ccc4c(C)cc(=O)oc4c3)CC2)cc1 | inconclusive: 89.1 µM [inhibitor, single point] | –

Structure (SMILES) | Potency | activity, negative = inhibition
C=CCOc1ccc(/C=C2/C(=O)ON=C2C)cc1OC | active: 50.1 µM | –
COc1ccc(S(=O)(=O)N2CCCCCC2)cc1C(=O)N(C)CC(=O)Nc1ccccc1C(F)(F)F | – | inactive: -4.32%
COc1ccccc1CNC(=O)COc1ccccc1C(=O)c1cnn(-c2ccccc2)c1 | inconclusive: 17.8 µM [inhibitor, partial curve, poor fit] | –
O=C(CSc1nc2c(cnn2-c2ccc(F)cc2)c(=O)[nH]1)N1CCOCC1 | active: 79.4 µM | –
CN(C)c1cccc(C(=O)N2CCC(c3ccncc3)CC2)c1 | – | inactive: -2.39%
COc1ccccc1CNC(=O)c1cc2cc(C)ccc2n1C | – | inactive: 5.01%
O=C1OC(c2ccc(Cl)cc2)=C/C1=C/c1cccnc1 | active: 56.2 µM | –
CN(CC(=O)Nc1ccccc1C(=O)N1CCCC1)S(=O)(=O)c1ccc(Br)cc1 | inconclusive: 100 µM [inhibitor, single point] | –
COc1ccc(NS(=O)(=O)c2ccc(-n3cnnn3)cc2)cc1OC | inconclusive: 79.4 µM [inhibitor, single point] | –
OC(COc1ccc(C2C=CCC2)cc1)CN1CCCCC1 (stereo not given) | active: 39.8 µM | –
CCC(=O)Nc1cc(C(F)(F)F)ccc1N1CCCC1 | – | inconclusive: -90.6% [inhibitor] [at 12.7 µM]
CCc1ccc(C(=O)CSc2n[nH]c(-c3ccncc3)n2)cc1 | inconclusive: 31.6 µM [inhibitor, single point] | –
CCN1CCN(c2c(Cl)cccc2NC(=O)c2ccco2)CC1 | inconclusive: 15.8 µM [inhibitor, full curve, poor fit] | –
CCCn1c2ccc(F)cc2c2nnc(SCCN3CCOCC3)nc21 | inconclusive: 50.1 µM [inhibitor, partial curve, poor fit] | –
Cc1ccc(S(=O)(=O)c2nc(S(=O)(=O)c3ccc(C)cc3)c(NC(C)C)s2)cc1 | – | inactive: -1.68%
COc1cc(Nc2cc(C)nc3ncnn23)cc(OC)c1OC | active: 44.7 µM | –
Cn1cc(C(F)(F)F)nc1-c1ccc(OCC(O)CNCCOc2ccc(O)c(C(N)=O)c2)cc1 (stereo not given) | inactive and active: 25.1 µM | –
FC(F)(F)c1ccccc1-c1cc(NCc2cccnc2)ncn1 | – | inactive: 7.81% [at 0.501 µM]
COc1ccc(S(=O)(=O)c2ccc(O)cc2)cc1 | – | inactive: -2.44% [at 102 µM]
CCOc1ccc2cc(C(=O)c3ccccc3)c(=O)oc2c1 | inconclusive: 28.2 µM [inhibitor, single point] | –
CCc1nnc(N/N=C/c2ccccc2F)n1N | inconclusive: 20 µM [inhibitor, single point] | –
CCN=c1scc(-c2ccccc2)n1/N=C/c1ccccn1 | inconclusive: 31.6 µM [inhibitor, single point] | –
